The labels stand for the following.
T1: UNK ZnF1-6 (called full-length) (human, UniProt Q9C0B0 30-357)
T1 sequence: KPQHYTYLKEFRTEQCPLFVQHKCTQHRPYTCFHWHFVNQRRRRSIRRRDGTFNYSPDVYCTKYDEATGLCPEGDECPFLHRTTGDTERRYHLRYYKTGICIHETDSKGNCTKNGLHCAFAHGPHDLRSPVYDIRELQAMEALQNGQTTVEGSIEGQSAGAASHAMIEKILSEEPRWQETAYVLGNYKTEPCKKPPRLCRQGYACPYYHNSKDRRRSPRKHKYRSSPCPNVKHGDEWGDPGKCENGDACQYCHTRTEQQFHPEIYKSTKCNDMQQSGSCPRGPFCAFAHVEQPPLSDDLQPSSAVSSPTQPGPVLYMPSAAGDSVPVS

B1: chr6:17764380:17764481:-|CDS|ENSG00000137177|msi1|FALSE|unique (ssRNA)
RNA: GGGAGUUCUACAGUCCGACGAUCCCAGAGCAUCCCUGAGAAAAACUCCAAAUCACUGUGCAGGACUGGCUCAUGUUCAGAACUAGAUGCCUGCCCCAGCAAAAUUAGCCAGCCAGCCAGGGGAUUCUGCCCCAGGGAGGUGACCAACAGAGGAUUGAGCAUCA
B2: chr18:49591392:49591493:+|3pUTR|ENSG00000101670|msi1|FALSE|unique (ssRNA)
RNA: GGGAGUUCUACAGUCCGACGAUCCCUUCUUAGUUAUUAUGUGCCACCUCCCCUAUGAGUGACGUGUUUGAUCACUAGCAGAAUAGCAAGCAGAGUAUCAUUCAUGCUGGGGCCAGAAUGAUGGCCGGUUGCCAGAUAUAACUGCAACAGAGGAUUGAGCAUCA
B3: ENSG00000198589:be:win_5551|CDS|ENSG00000198589|bound_else_gene|NA|bound_elsewhere_windowed (ssRNA)
RNA: GGGAGUUCUACAGUCCGACGAUCGUGGAAUUGGUUAUGCUACUGUGUUCUCAGGAGUGGCAAAAUUCUAUUCAGAAGAAUGCAGGCCUUGCUUUUAUCGAACUUGUCAAUGAAGGAAGGUUGCUUAGCCAGACAAUGAAGGAUCAACAGAGGAUUGAGCAUCA
B4: chr6:7881277:7881391:+|3pUTR|ENSG00000153162|unk|FALSE|unique (ssRNA)
RNA: GGGAGUUCUACAGUCCGACGAUCGCUGUUUAUGAACGGAAAUCAUGAUUUCCCUUGUAGAAAGUGAGGCUCAGAUUAAAUUUUAGAAUAUUUUCUAAAUGUCUUUUUCACAAUCAUGUACUGGGAAGGCAAUUUCAUACUAAACAACAGAGGAUUGAGCAUCA
B5: chrX:65740646:65740790:+|3pUTR|ENSG00000147065|msi1|total|mutant (ssRNA)
RNA: GGGAGUUCUACAGUCCGACGAUCGGCCAUUCUAUUGUGGCAAGGCUGAGCCGAAGAUCCUACCCCAAUUCCUUGCCGGAGUACCGGCCGGUCUAAAGUGAGCUCUAUGGGCAGAUCUACCCCUUACUUAUUAUUCCAGAUCUGCAACAGAGGAUUGAGCAUCA
B6: chr2:73228009:73228453:-|three_prime_utr|ENSG00000135617|control|control|control (ssRNA)
RNA: GGGAGUUCUACAGUCCGACGAUCUAAGUGACUCUGAGCUGGGAAGGGGAAACCCAGGAAUUUUGCUACUUGGAAUUUGGAGAUAGCAUCUGGGGACAAGUGGAGCCAGGUAGAGGAAAAGGGUUUGGGCGUUGCUAGGCUGAACAACAGAGGAUUGAGCAUCA
B7: chr11:44260439:44264853:-|three_prime_utr|ENSG00000052850|control|control|control (ssRNA)
RNA: GGGAGUUCUACAGUCCGACGAUCGACACCAUGGGCCACGCCCAUGUUUUCCAGGCCCCCAGCCUCCCACUCGACUUUCCUCUUAGGAACCUGGCCUGGGCCAGGGGCCUGACCCUCAGCACUUUCAGCCGCCCCAAGUCUGAGCAACAGAGGAUUGAGCAUCA
B8: chr16:46798953:46799054:-|3pUTR|ENSG00000155330|unk|FALSE|unique (ssRNA)
RNA: GGGAGUUCUACAGUCCGACGAUCUCUAUAUUUUUUUCUUUGCCUUAUUGCACUGGUUGGGACUUUUUGCCUUGAUCCAGUUGUAGGGGGGAAACAUUCAGUCAUUAAGCAUUAAAUAACUUUGUUGUUGUUGUGGGCUUGAAACAACAGAGGAUUGAGCAUCA
B9: chr22:31279490:31279591:+|3pUTR|ENSG00000182541|msi1|FALSE|unique (ssRNA)
RNA: GGGAGUUCUACAGUCCGACGAUCAGCAGCUUGGGCUGGGAAGAGGUGGUGGCAGAGUCUCAAAGCUGAGAUGCUGAGAGAGAUAGCUCCCUGAGCUGGGCCAUCUGACUUCUACCUCCCAUGUUUGCUCUCCCAACUCAUUAGCAACAGAGGAUUGAGCAUCA
B10: chr3:133826890:133826991:-|3pUTR|ENSG00000154917|unk|total|mutant (ssRNA)
RNA: GGGAGUUCUACAGUCCGACGAUCUUUGAACGUGUUUCAGAUGUCAUGUGUUCCGUUUUUAUAUGUGUGUACAUAAUUAUAUACCGAGACCGACUUGUGUAUACACCUUCCACAAACACAUCCUCACGGAGAUACAUGUGCUCACAACAGAGGAUUGAGCAUCA
B11: chr9:15474029:15474130:-|CDS|ENSG00000164985|unk|total|mutant (ssRNA)
RNA: GGGAGUUCUACAGUCCGACGAUCAAGAAAAGAGCCGGAUAAAAAAGAGGGGAAGAAAGAAGUUGAAUCAAAAAGGAAAAAUUCCGCUAAAACAGGGGUUACUUCAACCUCCGAUUCUGAAGAAGAAGGAGAUGAUCAAGAAGGCAACAGAGGAUUGAGCAUCA
B12: chr10:15513953:15517157:-|three_prime_utr|ENSG00000077943|control|control|control (ssRNA)
RNA: GGGAGUUCUACAGUCCGACGAUCUAAGUUGCAGUCCAGAUCAAUCCAGCAUAAGUUGCAGAGAUGAAAUGUCUGAAUCACUAUAGAAUUUACAAGGUGAACUAAGGUGAAAUGACUGAUUUACUAUAGAACUUAGAACUAAGACAACAGAGGAUUGAGCAUCA
B13: chr1:51919672:51919773:-|3pUTR|ENSG00000169213|unk|FALSE|unique (ssRNA)
RNA: GGGAGUUCUACAGUCCGACGAUCUAUUCUUUGCCUGCCCCUGGGGUUCUCUGCAGAUGGUCCCAGUAAUAGAUACUCAGCACUAGACUAACAUAACAGGUCACUACACGGGUGCAGAAUCACUUUACAAAAGAAGACUCUGUUCAACAGAGGAUUGAGCAUCA
B14: chr13:35475095:35475222:-|CDS|ENSG00000180660|unk|FALSE|unique (ssRNA)
RNA: GGGAGUUCUACAGUCCGACGAUCGCUGCAACUUAUCUCCUGCCUGCAGUGCCGGCGGUGUCCCCACUACUUUCUACCGAACUUAGAUCUGUUUCAAGGCAAACCUCACUCAGCUCUGGAAAACGCUGCCAAACAAACGUGGCGCAACAGAGGAUUGAGCAUCA
B15: chr8:23842656:23842757:-|3pUTR|ENSG00000159167|msi1|FALSE|unique (ssRNA)
RNA: GGGAGUUCUACAGUCCGACGAUCCCCCAAACUUAUGGACACUGCCUUAGCCUCUUGGAAAUCAGGUAGACCAUAUUCUAAGUUAGACUCUUCCCCUCCCUCCCACACUUCCCACCCCCAGGCAAGGCUGACUUCUCUGAAUCACAACAGAGGAUUGAGCAUCA
B16: chr15:99715702:99716401:-|three_prime_utr|ENSG00000183060|control|control|control (ssRNA)
RNA: GGGAGUUCUACAGUCCGACGAUCUGUUGACUACAAACAUUUACCAAAUACAUAAAUCUCUUUUAAAAAAGCCAUUUUAAAUAUAGCAAAGCAGUGUCUUCUUGCACAGCAAAGUGAAGAAAGUUUCUACAGAGAAAUAGAAGUCAACAGAGGAUUGAGCAUCA
B17: ENSG00000107863:be:win_1201|CDS|ENSG00000107863|bound_else_gene|NA|bound_elsewhere_windowed (ssRNA)
RNA: GGGAGUUCUACAGUCCGACGAUCUUGCACAUAGGUUGUCGGACAAUACAAGAAAGAUUAGAUAGUUUAAGAGCAGCAUCUCAAAGCACGACAGAUUAUAACCAGGUCGUCCCCAACCGCACUACUUUGCAGGGACGACGUCGACAACAGAGGAUUGAGCAUCA
B18: chrX:74591538:74591767:-|CDS|ENSG00000131263|unk|total|mutant (ssRNA)
RNA: GGGAGUUCUACAGUCCGACGAUCUUGCCCUUCCUCCGCCUGGCUCAGUUUUUCCUCUUAAAUGAGGAUGAUGAUGACCAACCCCGAGGACUCACCAAAGAACAGAUUGACAACUUGGCAAUGAGAAGUUUUGGUGAAAAUGAUCAACAGAGGAUUGAGCAUCA
B19: chr12:106239179:106239280:-|CDS|ENSG00000136026|msi1|total|mutant (ssRNA)
RNA: GGGAGUUCUACAGUCCGACGAUCGGACCAAGCCCAGGCCGCCCGUCUGCCUCCUCAGGACUUCCUGGACAGACUUUCUUCUCCCGACAACCUGAAAGCCUCAGUCAGCCAAGUGGAGGCGGACUUGAAAAUGCUCAGGACUGCCAACAGAGGAUUGAGCAUCA
B20: ENSG00000162063:stop:overlap|stop_codon|ENSG00000162063|stop_codon|NA|stop_codon (ssRNA)
RNA: GGGAGUUCUACAGUCCGACGAUCUGCGGCACUGCACCAAGGAGCCCCCGAGCGCUGAGAGCCCACACCCCGUCCCGGCUGUCUAGGUCCCCACUGUGGUGGAUUACAAGGAGGUCCUGCUGACGCUAGUCCCUGUGGAGCUGACAACAGAGGAUUGAGCAUCA
B21: ENSG00000107863:be:win_4451|CDS|ENSG00000107863|bound_else_gene|NA|bound_elsewhere_windowed (ssRNA)
RNA: GGGAGUUCUACAGUCCGACGAUCGCACGACAAAAGAUGAAAAGAUAUCACUAGGAAAAGAGAGCACGCCUUCUGAAGAACCCUCACCACCACACAACUCAAAACACAACAAGUCACCAACUCUCAGCUGUCGCUUUGCCAUCCCAACAGAGGAUUGAGCAUCA
B22: chr7:139716074:139716127:-|CDS|ENSG00000064393|msi1_unk|total|mutant (ssRNA)
RNA: GGGAGUUCUACAGUCCGACGAUCGAAGCAAAACAAGUUCCGCCCCUUGCCCCUCAAAUACAUUCGCCCAGUUCUCCAGCAGGCCGCCACAGCCCUGAUGAAACUCAAAAGCCCCGGUCUUAUCCACGCUGACCUCAAACCAGACAACAGAGGAUUGAGCAUCA

This is one part of the list.

The experiment deals with T1, UNK ZnF1-6 (called full-length). In words: nsRBNS (natural sequence RNA bind-n-seq); RBNS binding buffer (assumed for nsRBNS): 25 mM Tris pH 7.5, 150 mM KCl, 3 mM MgCl2, 0.01% Triton X-100, 500 ug/ml BSA, 20 U/ml SUPERase-In, 4 C; UNK is unkempt and MSI1 is Musashi-1; names of the RNAs are library labels; protein concentration not given here; high values mean tight binding.
Regarding B1, the binding signal was determined as 0.853 enrichment R.
Under B2 stands 1.48 enrichment R; under B3, 0.469 enrichment R.
For the molecule B4, the binding signal is 0.528 enrichment R.
Under B5 stands 0.632 enrichment R; under B6, 1.09 enrichment R; under B7, 0.652 enrichment R.
The result for B8 reads 0.79 enrichment R; that for B9, 0.852 enrichment R.
Under B10 stands 0.302 enrichment R; under B11, 0.66 enrichment R.
B12 came in with a binding signal of 0.361 enrichment R.
The result for B13 reads 0.854 enrichment R; that for B14, 0.714 enrichment R.
In turn, B15 came in with a binding signal of 1.1 enrichment R.
Molecule B16 displayed a binding signal of 1.38 enrichment R.
Under B17 stands 1.74 enrichment R; under B18, 0.484 enrichment R; under B19, 0.817 enrichment R.
The result for B20 reads 1.59 enrichment R.
Molecule B21 showed a binding signal of 0.919 enrichment R.
B22 came in with a binding signal of 0.903 enrichment R.
